# Results published in article PMC4242493.
# Some of the results follow. The list includes weakly bound sequences.
# Molecular target: MaxL homodimer (UniProt P61244)
# Experiment: universal protein-binding microarray (PBM)
# Details: PBS-based mixture, 10 nM His-tagged protein dimer, 2% milk, 200 ng/uL BSA, 50 ng/uL salmon testes DNA, 0.02% TX-100; detection with Alexa 488 anti-His …; high values mean tight binding; most listed sequences are background and not binding sites; double strand, one strand shown
# Chain of UniProt P61244 (P61244 whole entry): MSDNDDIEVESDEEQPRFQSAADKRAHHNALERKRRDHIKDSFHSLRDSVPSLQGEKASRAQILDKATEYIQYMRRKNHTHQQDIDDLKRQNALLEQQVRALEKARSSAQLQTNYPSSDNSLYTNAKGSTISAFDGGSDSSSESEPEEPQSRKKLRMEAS
row,Sequence,binding signal (normalized occupancy)
1,CCGCTCCC,0.068
2,AAATATAA,0.0776
3,AAGAACGC,0.0719
4,AAAGGAGT,0.0709
5,CGTGGGAC,0.096
6,GCGAAAGA,0.0745
7,GTAAATCA,0.0784
8,CTGGTATC,0.0757
9,CAGCTATG,0.0733
10,CGATCCCG,0.0749
11,GTTCCGAA,0.0707
12,CGAAAGGA,0.0662
13,ATGGACGG,0.0788
14,AATGCTGT,0.078
15,CAACCCAA,0.0765
16,GCTCCAAA,0.071
17,AAGCATGA,0.101
18,CAAGTTCC,0.072
19,TATGGCGA,0.079
20,GTACGTGA,0.078
21,AGATAATG,0.0779
22,ATAATTCC,0.0859
23,CAGTAGGG,0.0763
24,GCATTCAC,0.0843
25,CTTGCTCA,0.0741

row,Sequence,binding signal (normalized occupancy)
1,GAGAGCTA,0.0719
2,AATTATTA,0.0745
3,CCAAGCGG,0.0669
4,GAGCGAAC,0.0704
5,GACACCGC,0.071
6,GGAAGCTA,0.0684
7,GATCGAGA,0.0708
8,ACGCTAGT,0.074
9,ACACCGTA,0.0798
10,TAAGAAAA,0.0724
11,CCCAAAGA,0.073
12,GAACCCGC,0.0714
13,CAATTCCA,0.0713
14,CAGCCACC,0.0779
15,ATATGGGC,0.0924
16,ACGAAGAA,0.0769
17,AGTAGCGG,0.0668
18,CGGACACA,0.0777
19,GAGATAGA,0.0718
20,ATTCGCCC,0.0759
21,CGGGGACG,0.0709
22,CCTAAGAC,0.0761
23,AATTGGAC,0.073
24,GCGGTATA,0.0862
25,ACCGAGAC,0.0804

row,Sequence,binding signal (normalized occupancy)
1,GTTCTGTA,0.0739
2,AAGGAGAG,0.0749
3,CAGGGCAC,0.0729
4,ATCATACC,0.0872
5,AGGCCGTA,0.0865
6,TAGCCTGA,0.0762
7,GAAAATTA,0.0753
8,ACATCGTA,0.0832
9,AAAACGAC,0.0704
10,GTGCGTTA,0.0802
11,AAAGTAAT,0.0755
12,GAACAAAA,0.0774
13,ATAATTAT,0.0751
14,CGATAGCA,0.0761
15,ATTGTACG,0.0803
16,GGGAATAA,0.0761
17,AAACAGTG,0.0728
18,AGACTCAG,0.0677
19,AACAGATG,0.0811
20,CGGGTGAA,0.0737
21,ATCAGTGA,0.074
22,CAGCCGCC,0.0661
23,CACCTCCC,0.0785
24,AAAATCGA,0.0701
25,AGCTTGGC,0.0728

row,Sequence,binding signal (normalized occupancy)
1,CGACGATA,0.0742
2,AGCCCCTG,0.0742
3,TAGACGGA,0.0767
4,AGGAGAAT,0.0739
5,CTGGGCGC,0.071
6,AAAGCAGG,0.0748
7,GATTCTCA,0.0699
8,AGGCAGTC,0.0707
9,GATATGAA,0.0765
10,TCTCGAAA,0.0729
11,CCACCGAC,0.0705
12,TGAAAACA,0.0774
13,CAACCCGC,0.0702
14,AGGAGCTC,0.0691
15,CTGACCTA,0.0721
16,GGTCGACA,0.073
17,CCCAACAC,0.0863
18,GAAAAGTC,0.071
19,CCACCTCC,0.0797
20,CGATCACC,0.0764
21,AGTATACT,0.0754
22,CCTTGGAA,0.0704
23,CTATGGAG,0.0785
24,ATCGCAAC,0.0716
25,GATCCGCA,0.0769

row,Sequence,binding signal (normalized occupancy)
1,GATCAGGA,0.0748
2,AACAAACC,0.074
3,ATGCTCGG,0.0776
4,CGGGCATC,0.0714
5,CGAGCTCC,0.0701
6,CTTAAAAA,0.0679
7,TGGCGACA,0.075
8,ACCAACCC,0.0787
9,CAAGGCTG,0.0705
10,CGGAACAA,0.0732
11,GCTGGGAC,0.0747
12,CTTTGGGA,0.0699
13,AAACGAAG,0.0718
14,CATGGTTC,0.0877
15,GCCATCGA,0.0704
16,TCCGTGCA,0.0771
17,AGAATATA,0.0823
18,GCCAGGAA,0.0761
19,AACTTGCA,0.0757
20,AAAGACAT,0.0759
21,GCACTTAA,0.0742
22,ACCCCCGT,0.0814
23,AACTCACC,0.0734
24,ATTGGTGA,0.079
25,ATAATCCA,0.0803

row,Sequence,binding signal (normalized occupancy)
1,GGCGGAGA,0.0677
2,CGTTGCAG,0.0763
3,ACGCCTAC,0.075
4,TCCACACA,0.0814
5,AGGCCTGC,0.0726
6,ATACGCAG,0.0734
7,CGAATGGC,0.0741
8,ACTGGCGG,0.0693
9,ACTCTATC,0.0791
10,AGCCATCA,0.0792
11,AGGTCTTC,0.0711
12,CGTTTGAG,0.0708
13,CATGTATC,0.0975
14,ACGAGTTG,0.0803
15,CCCTAAGC,0.0711
16,GCACATTA,0.0869
17,CGCGTTAG,0.0774
18,GTAGTCAA,0.0703
19,AGAGTGTG,0.08
20,AACCGTCC,0.0687
21,AAGTGTTC,0.0784
22,ATATAGAT,0.0911
23,CATAGTGA,0.0778
24,ACTTACTG,0.0751
25,CCCCCCTA,0.0821

row,Sequence,binding signal (normalized occupancy)
1,CAGCATGC,0.126
2,GCGACATA,0.0788
3,GCAGAGCA,0.0719
4,GGAGCAAC,0.0682
5,CATTCAGC,0.0725
6,ATGCGGCA,0.0878
7,AGAGCATA,0.0815
8,TACGGAGA,0.0738
9,CTGGGGAA,0.0741
10,CTTACAGA,0.0668
11,ATTCCTCA,0.0739
12,AATTAGGA,0.0789
13,CAGACACC,0.0786
14,ATGTCGGG,0.0861
15,AGACTGGA,0.0692
16,GCCAAAGC,0.0687
17,GCTAATCC,0.0745
18,CAACTACA,0.076
19,ACAACTCC,0.0743
20,CCGCACCA,0.0786
21,TGCACACA,0.093
22,CCGAGGCG,0.0689
